Hit rate of the full screen: of about 410,000 compounds, about 490 (0.12%) were called active. Inconclusive results, whose numbers are uncertain, are shown with a selection of clear calls. Calls follow the shape of the dose curve; as a rule, active = well fitted inhibition curve with a large enough effect; inconclusive = small, poorly fitted or top-dose-only effect; inactive = flat fitted curve, though single readings scatter. Potencies of inconclusive entries are doubtful fits and often do not repeat.
Biological target: pyruvate kinase (Trypanosoma brucei) (UniProt Q57TT1)
Test: qHTS of Trypanosoma Brucei Inhibitors; also: nearly all actives have a fitted effect of over 50% in size
Settings: TbPYK enzyme, Kinase-Glo Plus ATP luminescence, 45 min; series mostly up to 76.8 µM
Procedure, shortened: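 Assay buffer: 50 mM TEA pH 7.2, 100 mM KCl, 10 mM MgCl2, 0.05% BSA, 0.01% Tween-20. Pyruvate kinase from T. brucei plus substrate met compound, then ADP (130 uM final). Luminescence was read post 45 min RT.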
Potency is read from the fitted curve at half-maximal effect; tags tell the direction and shape of the fitted curve.

SMILES	Potency
Cc1ccc(S(=O)(=O)SC/C=C/CSS(=O)(=O)c2ccc(C)cc2)cc1	inconclusive: 3.55 µM [inhibitor, full curve, poor fit]
O=Nc1ccc(NOC(=O)c2ccccc2)cc1	inconclusive: 28.2 µM [inhibitor, partial curve]
CCCCN1CC(=O)N2[C@@H]3c4cc(OC)ccc4OC[C@@H]3[C@H](C(=O)OCC)[C@]2(C)C1=O	inactive
O=C1C(SCCO)=C(SCCO)C(=O)c2ccccc21	active: 3.98 µM
Cc1cc(O)c(C(C)C)cc1N=Cc1ccc(N(C)C)cc1	inconclusive: 28.2 µM [inhibitor, partial curve]
O=C(CSc1ncn[nH]1)Nc1ccccc1-c1ccccc1	inactive
CCOC(=O)c1cc2c(=O)n3ccccc3nc2n(Cc2ccco2)c1=NC(=O)c1ccccc1Br	inactive
Cc1ccccc1COc1ccc(/C=N/NC(=O)c2nnn(-c3nonc3N)c2CN2CCC(C)CC2)cc1	inactive
CCOC(=O)c1c(NC(=O)CSc2nnc(-c3ccccc3)n2CC)sc(C(C)=O)c1C	inconclusive: 20 µM [inhibitor, partial curve, poor fit]
C=CCn1c(O)c(/C(CC)=N/NC(=S)Nc2ccccc2)c(=O)[nH]c1=O	inconclusive: 6.31 µM [inhibitor, full curve]
COc1ccc(C(=O)NC(=S)N2CC(C)OC(C)C2)cc1OC (centres undefined)	inconclusive: 31.6 µM [inhibitor, single point]
O=C1/C(=C/c2ccco2)SC(=S)N1c1cccnc1	inconclusive: 35.5 µM [inhibitor, partial curve, poor fit]
CCCCNC(=O)c1c(C)oc2ncn(CC(C)C)c(=O)c12	inactive
COC(=O)/C(=N\Nc1ccc(Cl)cc1)Sc1nnc(-c2ccc(OC)cc2)n1C	inconclusive: 5.01 µM [inhibitor, partial curve, poor fit]
C=CCn1c(-c2sc(-c3ccccc3)nc2C)n[nH]c1=S	inconclusive: 5.62 µM [inhibitor, partial curve]
CC(=O)Nc1ccc(OCCOc2ccc(/C=C3/C(=N)N4C=CSC4=NC3=O)cc2)cc1	inconclusive: 39.8 µM [inhibitor, partial curve, poor fit]
CCOc1ccc(OCCSc2nnnn2-c2ccccc2)cc1	inactive
CC(C)C(NC(=O)c1ccc(F)cc1)C(=O)NCC1CCCO1 (centres undefined)	inactive
Cc1ccc(S(=O)(=O)NCC(=O)N(c2ccccc2)C(C(=O)NCc2ccccc2)c2ccco2)cc1 (centres undefined)	inactive
S=c1[nH]c2cc(Cl)c3cccnc3c2o1	inconclusive: 17.8 µM [inhibitor, partial curve, poor fit]
Cc1ccc(NC(=O)CN2C(=O)N/C(=C/c3ccc(C)o3)C2=O)cc1	inconclusive: 39.8 µM [inhibitor, partial curve, poor fit]
OCCCc1nc2n(n1)C(c1ccccc1Cl)C=C(c1cccs1)N2 (centres undefined)	inconclusive: 22.4 µM [inhibitor, partial curve, poor fit]
COc1cc(/C=N/n2nnnc2N)ccc1OCc1c(C)no[n+]1[O-]	inactive

SMILES	Potency
O=C(/C=C/c1ccccc1)Nc1cccc(S(=O)(=O)Nc2ccccc2F)c1	inconclusive: 0.794 µM [inhibitor, full curve, poor fit]
CCN(CC)CCNc1nc(-c2ccco2)c2c(c1C#N)CC(C)(C)OC2	inactive
Cc1ccccc1OCc1n[nH]c(=S)n1-c1ccccc1	inconclusive: 2.51 µM [inhibitor, partial curve, poor fit]
CCCc1cc(C(=O)Nc2cccnc2Cl)no1	inactive
Cn1cccc1/C=C1/C(=O)NC(=S)N(Cc2ccc(F)cc2)C1=O	inconclusive: 28.2 µM [inhibitor, partial curve, poor fit]
COc1ccc(Br)cc1S(=O)(=O)N1CCCC1	inconclusive: 39.8 µM [inhibitor, single point]
Cc1n[nH]c(=S)n1-c1ccc(Cl)cc1	inconclusive: 11.2 µM [inhibitor, partial curve, poor fit]
COC(=O)CSc1nc(NC(C)C)nc(N2CCOCC2)n1	inconclusive: 1 µM [inhibitor, full curve]
O=C(Nc1ccccn1)c1ccc2c(c1)OCCO2	inconclusive: 35.5 µM [inhibitor, partial curve, poor fit]
O=C1CCCC2=C1C(c1ccc(O)c(O)c1)Nc1ccc3ncccc3c12 (centres undefined)	inconclusive: 15.8 µM [inhibitor, partial curve, poor fit]
CC(C)n1c(=S)[nH]c2cc(Cl)ccc21	inconclusive: 5.62 µM [inhibitor, partial curve, poor fit]
COc1cccc(CNCCSc2nnnn2C)c1OCc1ccccc1Cl	inconclusive: 22.4 µM [inhibitor, partial curve, poor fit]
CC(=O)c1ccc(S(=O)(=O)N2CCNCC2)cc1	inconclusive: 28.2 µM [inhibitor, single point]
CCC1CCCCN1C(=O)CCCOc1ccccc1 (centres undefined)	inconclusive: 35.5 µM [inhibitor, single point]
O=C1C=CC(=O)c2c(O)c(N3CCN(CCOCCO)CC3)c(Br)c(O)c21	inconclusive: 50.1 µM [inhibitor, single point]
CC(C)C[C@H]1CNC(=O)C(=O)N1C[C@H]1CCCN1C[C@H](CC(C)C)N1C[C@H](Cc2ccccc2)N(CC2CCCCC2)C(=O)C1=O	inactive
O=C(NCc1nc2ccccc2[nH]1)C1=C[C@H](c2ccccc2)C[C@H](OCc2ccc(CO)cc2)O1	inactive
S=c1[nH]nc(-c2ccncc2)n1Cc1ccccc1	inconclusive: 44.7 µM [inhibitor, partial curve, poor fit]
COc1ccc(OC)c(-c2nnc3n2N=C(c2ccc(OC(F)F)c(OCC4CC4)c2)CS3)c1	inconclusive: 22.4 µM [inhibitor, partial curve, poor fit]
CC1CC(C)C[N+](=C2C=C(N3CCCC3)CC(C)(C)C2)C1 (centres undefined)	inconclusive: 35.5 µM [inhibitor, single point]
CCCCCOC(=O)c1[nH]c2c(c1C)C(=O)C(C(=O)OC)C(C)C2 (centres undefined)	inconclusive: 50.1 µM [inhibitor, single point]
O=C1NC(=S)NC(=O)C1=Cc1ccccc1C(=O)O	inconclusive: 35.5 µM [inhibitor, partial curve, poor fit]
N#CC1=C2SCN(C3CCCCC3)CN2C(=O)CC1c1c(F)cccc1Cl (centres undefined)	inconclusive: 5.01 µM [inhibitor, partial curve]

SMILES	Potency
Cn1cc([N+](=O)[O-])c(C(=O)N2CCCCCC2)n1	inactive
CC(=O)c1c(Nc2ccc3c(c2)OCCO3)oc(C)cc1=O	inactive
N#C/C(=C(/O)CN1CCCC1)c1nc(-c2ccccc2)cs1	inactive
CN(CCC#N)C(=O)COC(=O)c1ccccc1C(=O)c1ccc(Cl)c([N+](=O)[O-])c1	inactive
O=C1N/C(=N/Nc2ccccc2)S/C1=C\c1ccccc1	inactive
Cc1nn(CC(O)COc2ccc3c(c2)CCC3)c(C)c1C (centres undefined)	inconclusive: 28.2 µM [inhibitor, single point]
S=c1[nH]nc(-c2cccnc2)n1C1CCCCC1	inconclusive: 7.08 µM [inhibitor, partial curve]
Cc1ccc(-c2cn(-c3ccccc3)c(SCC(=O)NC3CCS(=O)(=O)C3)n2)cc1C (centres undefined)	inconclusive: 5.01 µM [inhibitor, full curve]
COc1ccc(NS(=O)(=O)c2ccc(N3CCCC3)c(NC(=S)Nc3cccc(C)c3C)c2)cc1	inconclusive: 20 µM [inhibitor, partial curve]
COc1ccccc1-n1c(=S)[nH]c2c(sc(=S)n2-c2ccc(C)cc2C)c1=O	inconclusive: 5.62 µM [inhibitor, partial curve, poor fit]
Cc1ccc(N2CC(NC(=O)CCc3ccccc3)CC2=O)cc1C (centres undefined)	inactive
CC(NC(=O)COC(=O)CCc1ccc(S(=O)(=O)N2CCOCC2)cc1)C1CC2CCC1C2 (centres undefined)	inactive
O=C(NCc1n[nH]c(=S)n1-c1ccccc1)c1ccc(S(=O)(=O)N2CCCCC2)cc1	inconclusive: 14.1 µM [inhibitor, partial curve, poor fit]
COCCCn1c(-c2ccccc2Cl)n[nH]c1=S	inconclusive: 10 µM [inhibitor, partial curve, poor fit]
O=C1C=CC(=O)N1CCNc1ncc(C(F)(F)F)cc1Cl	inconclusive: 3.98 µM [inhibitor, full curve, poor fit]
Nc1cc(=O)[nH]c(SC/C=C/c2ccccc2)n1	inactive
COc1ccc(O)c(/C=C(\C#N)C(=O)Nc2ccccn2)c1	inactive
CN1CCN(C(=O)C2=C[C@@H](c3ccc(C(F)(F)F)cc3)C[C@@H](OCc3ccc(CO)cc3)O2)CC1	inactive
Cc1cccc(C(=O)NC(=S)NNC(=O)COc2c(C)cccc2C)c1	inconclusive: 20 µM [inhibitor, partial curve, poor fit]
COCCn1c(C)cc(C2=NNC(=Nc3ccc(Cl)cc3Cl)SC2)c1C	inconclusive: 10 µM [inhibitor, full curve, poor fit]
Cc1ccc2nc(-c3cccc(NC(=O)c4ccc(Br)o4)c3)oc2c1	inactive
COc1ccc(C=C2C(=O)N(C)C(=O)N(C)C2=O)cc1CSc1ccccn1	inconclusive: 25.1 µM [inhibitor, partial curve]
O=C(/C=C\Nc1ccc2c(c1)OCO2)c1cccs1	inconclusive: 39.8 µM [inhibitor, single point]
